“And” between values parts separate entries of the source, which are not always exact repeats. Identical values can stand only once.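 All cell lines were grown in 96-well plates and treated with compound for 48 hours. The concentration for 50% growth inhibition is given as GI50. TGI is the concentration that stops growth completely.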

The assay deals with NCI-H322M lung. Description: growth of human tumour cells (NCI), 48 h.
As for `NC(=O)c1ccc(NN=O)nc1`, the TGI is > 100 µM.

For `CO/N=C(\C(=O)N(C)n1cnnc1)c1csc(NC(c2ccccc2)(c2ccccc2)c2ccccc2)n1`, the TGI was > 10 µM. For `C=CC(=O)NCc1cccc(Nc2ncc(Br)c(NCCCNC(=O)C3CCC3)n2)c1`, the GI50 was 2.16 µM and 1.78 µM; the TGI is 9.47 µM and 14.4 µM.

For `COCCCNC(=O)C1=C(C)NC(C)=C(C(=O)NCCCOC)C1`, the TGI was > 100 µM. Consider `Oc1ccc(N=C2CCC(=C(c3ccccc3)c3ccc(Nc4ccc(O)cc4)cc3)CC2)cc1`, for which the TGI was > 100 µM. With `CC(=O)CSc1c(-c2ccccc2)c(=O)n(-c2ccccc2)c(=S)n1-c1ccccc1`, the TGI is > 100 µM. As for `CCN(CC)c1ccc2cc(C(=O)Nc3ccccc3)c(=N)oc2c1`, the TGI was > 100 µM. Take `CC(=O)c1cc(C(=O)c2ccc3c(c2)Sc2ccccc2N3)c2c(C)cc(C)cn12`: the GI50 is 0.615 µM and the TGI was > 100 µM. As for `COc1cccc2c1OC(c1ccc(C#N)cc1)C([N+](=O)[O-])=C2` (centres undefined), the TGI amounted to 16.8 µM. In the case of `C=C(C)[C@@]1(OC(=O)c2cc([N+](=O)[O-])cc([N+](=O)[O-])c2)C[C@@H]2CCCC[C@@H]21`, the TGI is > 100 µM. Still for that read-out and setting: for `N#Cc1c(N)[nH]c(=S)c(C#N)c1-c1ccccc1` the value was > 100 µM. Turning to `C/C(=C\CCc1ccoc1)CC/C=C(\C)CCCN1CCOCC1`, the GI50 is 12.9 µM and the TGI stood at 26.7 µM. With `Cc1ccc(C(SCC(N)C(=O)O)(c2ccc(C)cc2)c2ccc(C)cc2)cc1` (centres undefined), the GI50 is 0.999 µM and the TGI was determined as 20.5 µM. As for `CNC(=O)SCC(N)C(=O)O` (centres undefined), the TGI is > 100 µM. On to `O=C1c2ccccc2C(=O)N1CCN(CCN1C(=O)c2ccccc2C1=O)Cn1cccn1`, for which the TGI is > 100 µM. As for `CS(=O)(=O)Nc1ccc(-c2cc(-c3ccccc3)cc(C(N)=O)c2N)cc1`, the GI50 was > 25 µM and the TGI was > 25 µM. Turning to `C=CCSC1=N/C(=C\c2cccs2)C(=O)N1CC=C`, the TGI is > 100 µM. For the molecule `CC1=NOC(=O)/C1=C/c1cccc2ccccc12`, the TGI was > 100 µM. Take `COc1ccc(C(=O)COC(=O)[C@H](C[Se][Se]C[C@H](NC(=O)c2ccc(Br)cc2F)C(=O)OCC(=O)c2ccc(OC)cc2)NC(=O)c2ccc(Br)cc2F)cc1`: the GI50 was 0.332 µM and the TGI turned out to be 2.32 µM.

Molecule `CCOC(=O)c1c(Cl)nc2ccccc2c1N=[N+]=[N-]` showed a TGI of 73.9 µM. `COc1cc(C2C(C#N)=C(N)OC3=C2CCS(=O)(=O)c2ccc(C)cc23)cc(OC)c1OC` (centres undefined): the TGI was > 100 µM. Same read-out and setting: the same measure for `CC(C)(C)Nc1noc(=O)n1C(C)(C)C`: > 100 µM; for `O=P1(Oc2ccccc2)N(CCCl)CCN1c1ccccc1` (centres undefined): > 100 µM.

Take `NS(=O)(=O)c1ccc(NC2=CC(=O)C(=O)c3ccccc32)cc1`: the TGI is > 100 µM. As for `CO[C@@H]1C=C[C@@]23c4cc5c(cc4C(=O)O[C@H]2CN(C)[C@H]3C1)OCO5`, the TGI was > 100 µM. Same read-out and setting: the same measure for `CC(=O)Nc1cc2c3c(c1)CCCN3CCC2`: > 100 µM; for `CCOC(=O)C1C2CCC(C2)C1(CCl)C(=O)OCC` (centres undefined): > 100 µM.

For the molecule `CCOc1ccc(N/C(Cl)=C(Cl)\C(=C(\Nc2ccc(OCC)cc2)n2nnc3ccccc32)[N+](=O)[O-])cc1`, the TGI is > 57.8 µM. `O=S(=O)(O)c1ccc(N=Nc2c(O)ccc3cc(Br)ccc23)cc1`: the TGI was > 100 µM.

As to `O=C(N/N=C/c1cc(Cl)cc(Cl)c1[O-])c1ccccc1O.O=C(N/N=C/c1cc(Cl)cc(Cl)c1[O-])c1ccccc1O.[Zn+2]`, the GI50 is 0.955 µM and the TGI is 14.8 µM. As to `COc1cc(-c2nc3ccccc3s2)ccc1NC(=O)COc1ccc(Cl)cc1`, the GI50 is 7.56 µM and the TGI was > 100 µM. `Oc1ccc(O)c(-c2cn3ccsc3n2)c1`: the GI50 was 10.2 µM and the TGI worked out at 25.2 µM. As for `N/N=C(\C(=O)Nc1ccc(Cl)cc1Cl)C(c1cnc2ccccc2n1)[N+](=O)[O-]` (centres undefined), the TGI was > 100 µM. Regarding `CC(C)(C)C(=O)OCOP(=O)(OCOC(=O)C(C)(C)C)C1CC(O)N(O)C1=O` (centres undefined), the GI50 is 3.83 µM and the TGI came to 39.7 µM.

The values are drawn from PubChem BioAssay (NCI).
